Reference: the supplement of paper PMC12355420
Where a name gives a salt, the structure may show the parent alone. The list shows a part of the results. No stated cut-off is given here; in the data, active = 0.5 or less and inactive = the rest. Repeats are few or missing, and single values can be far off.

What was measured:
Conditions in all cases: 50 µM; 24 h
[1] = tested on: HeLa VPS33A reporter cells; assay: relative cell viability (CellMask signal) vs DMSO (fraction of DMSO); higher = less cytotoxic;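 further: primary screen of an FDA-approved drug library in HeLa reporter cells in 96-well format, CellMask signal normalized to DMSO-treated wells set as 1, under 0.5 deemed highly cytotoxic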
[2] = tested on: HeLa VPS33A R498W KI + HA-SDC1-FLAG; assay: relative GAG core protein HA-SDC1 amount per cell number vs DMSO (fraction of DMSO); higher = more SDC1 (GAG core protein);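 further: HA-SDC1 level read out by In-Cell Western staining with an anti-HA antibody against the N-terminal tag, screening FDA-approved library drugs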
[3] = tested on: HeLa VPS33A KO + NLuc-VPS33A R498W; assay: relative mutant VPS33A R498W amount (NanoLuc luminescence) vs DMSO (fraction of DMSO); HeLa model of a glycosaminoglycan (GAG) storage disease; KI is knock-in and KO knock-out; SDC1 is syndecan 1; higher = higher mutant VPS33A level;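 further: screen of an FDA-approved drug library, NanoLuc luminescence read after lysing the treated cells, taken as a measure of mutant VPS33A protein stability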

Row | Compound | relative cell viability [1] | relative GAG core protein HA-SDC1 amount per cell number [2] | relative mutant VPS33A R498W amount [3]
1 | CC(=O)OCC(=O)[C@@]12OC(C)(C)O[C@@H]1C[C@H]1[C@@H]3C[C@H](F)C4=CC(=O)C=C[C@]4(C)[C@@]3(F)[C@@H](O)C[C@@]12C [Fluocinonide] | 1.16 | inactive: 0.923 | 1.15
2 | CC1(C)[C@@H](O)CC[C@]2(C)[C@H]3C(=O)C=C4[C@@H]5C[C@@](C)(C(=O)O)CC[C@]5(C)CC[C@@]4(C)[C@]3(C)CC[C@@H]12 [Enoxolone] | 1.07 | inactive: 0.892 | 1.35
3 | CCOC(=O)n1ccn(C)c1=S [Carbimazole] | 1 | inactive: 0.898 | 1.1
4 | COc1cc(C)c(/C=C/C(C)=C/C=C/C(C)=C/C(=O)O)c(C)c1C [Acitretin] | 0.513 | active: 0.475 | 3.6
5 | NC(=O)N[C@@H](CCC(=O)O)C(=O)O [N-Carbamyl-L-glutamic acid] | 1.01 | inactive: 0.907 | 1.39
6 | CO/N=C(\C(=O)N[C@@H]1C(=O)N2C(C(=O)O)=C(CSC(=O)c3ccco3)CS[C@H]12)c1csc(N)n1 [Ceftiofur HCl] | 1.02 | inactive: 0.966 | 1.6
7 | OCCOCCN1CCN(C2=Nc3ccccc3Sc3ccccc32)CC1 [Quetiapine] | 0.999 | inactive: 1.07 | 0.571
8 | NCCS(=O)(=O)O [Taurine] | 1.1 | inactive: 0.827 | 0.778
9 | CC(C)(C)C(=O)C(Oc1ccc(Cl)cc1)n1ccnc1 (stereo unspecified) [Climbazole] | 0.837 | inactive: 0.545 | 0.664
10 | NCCc1c[nH]cn1 [Histamine Phosphate] | 0.84 | inactive: 1.31 | 1.03
11 | COc1ccc2[nH]c([S+]([O-])Cc3ncc(C)c(OC)c3C)nc2c1 (stereo unspecified) [Omeprazole] | 0.964 | active: 0.482 | 0.994
12 | COc1ccc(-n2nc(C(N)=O)c3c2C(=O)N(c2ccc(N4CCCCC4=O)cc2)CC3)cc1 [Apixaban] | 1.32 | inactive: 0.86 | 0.857
13 | C#Cc1cccc(Nc2ncnc3cc(OCCOC)c(OCCOC)cc23)c1 [Erlotinib] | 1.31 | inactive: 0.747 | 0.514
14 | CCCCOc1ccc(OCCCN2CCOCC2)cc1 [Pramoxine HCl] | 0.862 | inactive: 0.786 | 1.54
15 | CNC(=C[N+](=O)[O-])NCCSCc1ccc(CN(C)C)o1 [Ranitidine] | 1.16 | inactive: 1.06 | 1.41
16 | C[N+](C)(C)CCOP(=O)([O-])OC[C@H](O)CO [sn-Glycero-3-phosphocholine] | 1.22 | inactive: 1.46 | 0.674
17 | O=[N+]([O-])c1ccc(O)c2ncccc12 [Nitroxoline] | 1.07 | inactive: 0.548 | 5.76
18 | CC(C)c1cc(-c2n[nH]c(=O)n2-c2ccc3c(ccn3C)c2)c(O)cc1O [Ganetespib (STA-9090)] | 0.955 | inactive: 0.586 | 0.278
19 | OC[C@H]1O[C@H](OC[C@H]2O[C@H](O[C@]3(CO)O[C@H](CO)[C@@H](O)[C@@H]3O)[C@H](O)[C@@H](O)[C@@H]2O)[C@H](O)[C@@H](O)[C@H]1O [D-(+)-Raffinose (hydrate)] | 1.16 | inactive: 0.697 | 1.24
20 | CS(=O)(=O)c1ccc([C@@H](O)[C@@H](CO)NC(=O)C(Cl)Cl)cc1 [Thiamphenicol] | 1.21 | inactive: 0.664 | 1.11
21 | O=C1c2cccc3c2[C@H](CCC3)CN1[C@@H]1CN2CCC1CC2 [Palonosetron HCl] | 1.03 | inactive: 0.893 | 0.601
22 | CC[N+](C)(C)c1cccc(O)c1 [Edrophonium (chloride)] | 0.998 | inactive: 0.817 | 1.4
23 | O=NO [Sodium Nitrite] | 0.997 | inactive: 0.782 | 1.32
24 | O=C(O)Cc1ccccc1Nc1c(Cl)cccc1Cl [Diclofenac] | 1.02 | inactive: 0.817 | 1
25 | O=C(C1CCCCC1)N1CC(=O)N2CCc3ccccc3C2C1 (stereo unspecified) [Praziquantel] | 0.967 | inactive: 1.03 | 1.17
26 | Nc1nc(F)nc2c1ncn2[C@@H]1O[C@H](COP(=O)(O)O)[C@@H](O)[C@@H]1O [Fludarabine Phosphate (Fludara)] | 1.43 | inactive: 0.883 | 0.589
27 | Nc1c(CC(=O)O)cccc1C(=O)c1ccc(Br)cc1 [Bromfenac Sodium] | 1.01 | inactive: 1.26 | 1.14
